Measured values reported in the supplement of paper PMC8728848.
The other results are listed elsewhere or left out.

Assays:
Assay in all cases: glycan array binding signal (z-score within array); higher = stronger binding
Conditions in all cases: glycan notation: IUPAC condensed, linker removed
[1] = target: Neu5Ac(a2-3)Gal(b1-4)GlcNAc(b1-6)GalNAc
Outline: (§1)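 The binding signal is a Z-score computed within each array. Data were drawn from 3228 arrays in the Consortium for Functional Glycomics database, restricted to those with a known protein sequence. Scores were averaged over arrays of the same protein sequence at different concentrations or buffers, and over linkers, and negative values can be taken as non-binding.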

[2] = target: Neu5Ac(a2-3)Gal(b1-4)GlcNAc(b1-6)[Gal(b1-3)]GalNAc
Outline: as §1

[3] = target: Neu5Ac(a2-3)Gal(b1-4)GlcNAc(b1-6)[Neu5Ac(a2-3)Gal(b1-3)]GalNAc
Outline: as §1

[4] = target: Neu5Ac(a2-3)Gal(b1-4)GlcNAc6S
Outline: as §1

[5] = target: Neu5Ac(a2-3)Gal(b1-4)[Fuc(a1-3)]GlcNAc
Outline: as §1

[6] = target: Neu5Ac(a2-3)Gal(b1-4)[Fuc(a1-3)]GlcNAc(b1-2)Man
Outline: as §1

[7] = target: Neu5Ac(a2-3)Gal(b1-4)[Fuc(a1-3)]GlcNAc(b1-3)Gal
Outline: as §1

[8] = target: Neu5Ac(a2-3)Gal(b1-4)[Fuc(a1-3)]GlcNAc(b1-3)Gal(b1-4)GlcNAc
Outline: as §1

[9] = target: Neu5Ac(a2-3)Gal(b1-4)[Fuc(a1-3)]GlcNAc(b1-3)Gal(b1-4)[Fuc(a1-3)]GlcNAc(b1-3)Gal(b1-4)[Fuc(a1-3)]GlcNAc
Outline: as §1

[10] = target: Neu5Ac(a2-3)Gal(b1-4)[Fuc(a1-3)]GlcNAc(b1-3)GalNAc
Outline: as §1

[11] = target: Neu5Ac(a2-3)Gal(b1-4)[Fuc(a1-3)]GlcNAc(b1-6)[Gal(b1-3)]GalNAc
Outline: as §1

[12] = target: Neu5Ac(a2-3)Gal(b1-4)[Fuc(a1-3)]GlcNAc(b1-6)[Neu5Ac(a2-3)Gal(b1-3)]GalNAc
Outline: as §1

[13] = target: Neu5Ac(a2-3)Gal(b1-4)[Fuc(a1-3)]GlcNAc6S
Outline: as §1

[14] = target: Neu5Ac(a2-3)Gal6S(b1-4)GlcNAc
Outline: as §1

[15] = target: Neu5Ac(a2-3)Gal6S(b1-4)[Fuc(a1-3)]GlcNAc
Outline: as §1

[16] = target: Neu5Ac(a2-3)GalNAc
Outline: as §1

[17] = target: Neu5Ac(a2-3)GalNAc(b1-4)GlcNAc
Outline: as §1

[18] = target: Neu5Ac(a2-3)[GalNAc(b1-4)]Gal(b1-4)Glc
Outline: as §1

[19] = target: Neu5Ac(a2-3)[GalNAc(b1-4)]Gal(b1-4)GlcNAc
Outline: as §1

[20] = target: Neu5Ac(a2-3)[GalNAc(b1-4)]Gal(b1-4)GlcNAc(b1-3)GalNAc
Outline: as §1

[21] = target: Neu5Ac(a2-3)[Neu5Ac(a2-6)]GalNAc
Outline: as §1

[22] = target: Neu5Ac(a2-6)Gal
Outline: as §1

[23] = target: Neu5Ac(a2-6)Gal(b1-3)GlcNAc(b1-3)[Gal(b1-4)GlcNAc(b1-6)]Gal(b1-4)Glc
Outline: as §1

[24] = target: Neu5Ac(a2-6)Gal(b1-4)Glc
Outline: as §1

[25] = target: Neu5Ac(a2-6)Gal(b1-4)GlcNAc
Outline: as §1

[26] = target: Neu5Ac(a2-6)Gal(b1-4)GlcNAc(b1-2)Man
Outline: as §1

[27] = target: Neu5Ac(a2-6)Gal(b1-4)GlcNAc(b1-2)Man(a1-3)Man(b1-4)GlcNAc(b1-4)GlcNAc
Outline: as §1

[28] = target: Neu5Ac(a2-6)Gal(b1-4)GlcNAc(b1-2)Man(a1-3)[Gal(b1-4)GlcNAc(b1-2)Man(a1-6)]Man(b1-4)GlcNAc(b1-4)GlcNAc
Outline: as §1

[29] = target: Neu5Ac(a2-6)Gal(b1-4)GlcNAc(b1-2)Man(a1-3)[GlcNAc(b1-2)Man(a1-6)]Man(b1-4)GlcNAc(b1-4)GlcNAc
Outline: as §1

[30] = target: Neu5Ac(a2-6)Gal(b1-4)GlcNAc(b1-2)Man(a1-3)[GlcNAc(b1-4)][Neu5Ac(a2-6)Gal(b1-4)GlcNAc(b1-2)Man(a1-6)]Man(b1-4)GlcNAc(b1-4)GlcNAc
Outline: as §1

[31] = target: Neu5Ac(a2-6)Gal(b1-4)GlcNAc(b1-2)Man(a1-3)[Man(a1-6)]Man(b1-4)GlcNAc(b1-4)GlcNAc
Outline: as §1

B1: SP16665A-bot-344-23-344 (Bacteroides ovatus) (protein)
chain: SDNEFPDFDYQTVYFANQYGLRTIELGESEFVDNTLDNQHKMVIKAAWGGGYTNRNNVVINFKVDESLCDNLYFKDTDQPLVPMPASYYTLASDRIAIPKGQIMAGVEVQLTDDFFADEKSISENYVIPLLMTNVQGADSILQGKPVVENPVLTNAGDWSILPQNFVLYAVKYVNPWHGEYLRRGIDHATVAGTSKDIIRHEQFVENDEVVNISTKSMKDNLLTLKTKDESGKDISYTVRLSFAEDGSCTVHSGSQNVVVSGSGKFVSKGEKNSLGGKDRNAIYLDYTVNLTDNNIQLATKDTLVLRTRNVYGGKSLEVVRK
glycan array binding signal (z-score) [1]: -0.192
glycan array binding signal (z-score) [2]: -0.225
glycan array binding signal (z-score) [3]: -0.543
glycan array binding signal (z-score) [4]: -0.405
glycan array binding signal (z-score) [5]: -0.247
glycan array binding signal (z-score) [6]: 0.057
glycan array binding signal (z-score) [7]: -0.135
glycan array binding signal (z-score) [8]: 0.266
glycan array binding signal (z-score) [9]: -0.053
glycan array binding signal (z-score) [10]: 1.76
glycan array binding signal (z-score) [11]: 0.512
glycan array binding signal (z-score) [12]: 0.537
glycan array binding signal (z-score) [13]: -0.15
glycan array binding signal (z-score) [14]: -0.364
glycan array binding signal (z-score) [15]: -0.363
glycan array binding signal (z-score) [16]: 0.234
glycan array binding signal (z-score) [17]: -0.166
glycan array binding signal (z-score) [18]: -0.539
glycan array binding signal (z-score) [19]: 0.103
glycan array binding signal (z-score) [20]: -0.482
glycan array binding signal (z-score) [21]: 0.465
glycan array binding signal (z-score) [22]: 0.1
glycan array binding signal (z-score) [23]: -0.503
glycan array binding signal (z-score) [24]: -0.226
glycan array binding signal (z-score) [25]: 0.493
glycan array binding signal (z-score) [26]: -0.623
glycan array binding signal (z-score) [27]: -0.385
glycan array binding signal (z-score) [28]: -0.154
glycan array binding signal (z-score) [29]: -0.135
glycan array binding signal (z-score) [30]: -0.08
glycan array binding signal (z-score) [31]: -0.362
